Paper PMC4336329 (PLoS ONE, 2015)
Screen size: about 310,000 compounds; about 14,000 (4.5%) showed an effect of 50% or more. Effects have a minus sign here. The list shows a part of the results.

biological target: human ether-à-go-go-related gene (hERG) potassium channel (human, UniProt Q12809); assay: primary screen, population patch clamp on CHO cells stably expressing hERG
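Note: peak tail current of the secondary pulse compared with the same well before compound.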

human ether-à-go-go-related gene (hERG) potassium channel, sequence (Q12809 whole entry, looked up): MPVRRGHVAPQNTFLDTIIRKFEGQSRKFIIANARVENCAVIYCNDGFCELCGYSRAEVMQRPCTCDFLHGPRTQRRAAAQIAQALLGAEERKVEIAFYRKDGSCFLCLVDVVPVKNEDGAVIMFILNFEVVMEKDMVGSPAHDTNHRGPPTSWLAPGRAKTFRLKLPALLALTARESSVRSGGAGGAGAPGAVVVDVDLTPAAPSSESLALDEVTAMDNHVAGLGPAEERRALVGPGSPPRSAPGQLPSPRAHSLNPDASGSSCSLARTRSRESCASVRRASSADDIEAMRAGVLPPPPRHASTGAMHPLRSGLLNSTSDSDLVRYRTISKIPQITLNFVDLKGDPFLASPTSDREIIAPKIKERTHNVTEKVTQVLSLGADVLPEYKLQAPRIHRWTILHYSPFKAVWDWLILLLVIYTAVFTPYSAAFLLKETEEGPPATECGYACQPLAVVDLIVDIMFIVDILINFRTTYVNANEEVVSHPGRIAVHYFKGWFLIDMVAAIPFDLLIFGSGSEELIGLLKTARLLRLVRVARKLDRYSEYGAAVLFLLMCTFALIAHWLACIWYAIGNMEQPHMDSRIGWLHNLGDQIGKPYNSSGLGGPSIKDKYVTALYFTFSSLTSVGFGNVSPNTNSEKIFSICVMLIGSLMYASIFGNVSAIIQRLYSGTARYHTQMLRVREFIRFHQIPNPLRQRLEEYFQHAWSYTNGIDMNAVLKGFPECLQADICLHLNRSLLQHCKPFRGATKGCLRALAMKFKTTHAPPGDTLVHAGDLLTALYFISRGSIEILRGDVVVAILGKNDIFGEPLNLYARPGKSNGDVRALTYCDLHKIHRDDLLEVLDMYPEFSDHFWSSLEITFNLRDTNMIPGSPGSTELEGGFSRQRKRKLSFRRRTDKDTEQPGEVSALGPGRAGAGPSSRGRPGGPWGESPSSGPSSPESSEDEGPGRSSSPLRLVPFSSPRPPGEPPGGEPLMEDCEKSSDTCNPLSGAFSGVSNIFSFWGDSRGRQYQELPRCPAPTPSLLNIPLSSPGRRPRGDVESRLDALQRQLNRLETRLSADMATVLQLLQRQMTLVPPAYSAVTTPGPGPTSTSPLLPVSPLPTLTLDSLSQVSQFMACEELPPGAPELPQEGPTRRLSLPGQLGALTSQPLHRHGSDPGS

SMILES | hERG current change (%, negative = inhibition) at 10uM [%]
COc1ccccc1CNC(c1ccccc1)c1ccccc1 | -2.31
C[n+]1ccc(-c2ccncc2)cc1.[I-] | 18.4
CCCCn1c(NCc2ccccc2O)nc2ccccc21 | 12.8
CCOC(=O)c1ccccc1OCc1cc(/C=N/NC(=O)c2cccnc2)ccc1OC | -18.7
COc1ccc(-c2nc(-c3cccnc3)no2)cc1OC | 7.22
O=C(c1cc(-c2ccccc2)n[nH]1)N1CCN(S(=O)(=O)c2ccccc2)CC1 | -4.84
O=[N+]([O-])c1ccc2c(c1)C=C1CCCCC1(N1CCCCC1)O2 (stereo not shown) | 1.53
O=C(NC1CCN(Cc2ccccc2)CC1)c1cccc(Br)c1 | -63.8
COc1ccc(C)cc1NC(=O)NNS(=O)(=O)c1ccc(NC(C)=O)cc1 | 24
COc1ccc(CN2CCCC(CNC(=O)c3ccc(F)cc3)C2)cc1OC (stereo not shown) | -70.6
COC(=O)CSc1nnc(-c2cccnc2)n1-c1cc(OC)cc(OC)c1 | -19.3
O=S(=O)(NCc1ccccc1)c1cccc2nonc12 | -7.98
O=C(CSc1nc(C(F)(F)F)cc(=O)[nH]1)Nc1cccc2ccccc12 | -10
Fc1cc(F)cc(NC(=S)Nc2ccccc2N2CCOCC2)c1 | -31.8
Cc1cccc(-c2nc(N)nc(N)n2)c1 | 8.37
Cc1cc2c(cc1C)CSC(c1ccc3ccccc3c1O)SC2 | 16.8
CCC1CCCCN1CC(C)(C)NS(=O)(=O)c1ccccc1 (stereo not shown) | -2.74
Cc1cccc2sc(NNC(=O)c3ccc(S(=O)(=O)N4CCc5ccccc5C4)cc3)nc12 | 20.7
O=C1CC(c2ccccc2)n2nc(NC(=O)c3ccccc3)nc2N1 (stereo not shown) | 8.09
COCC(C)NC(=O)c1nn(Cc2ccccc2)c(=O)c2ccccc12 (stereo not shown) | -8.34
O=C(O)CCC(=O)N(Cc1ccccc1)Cc1ccccc1 | 11.5
O=C(NCCCN1CCC(Cc2ccccc2)CC1)C1CCC(=O)N1C1CCCC1 (stereo not shown) | 6.52
CCOC(=O)c1ccc(NC(=O)CSc2ccc(-c3cccnc3)nn2)cc1 | -12.5

SMILES | hERG current change (%, negative = inhibition) at 10uM [%]
Cn1c(/C=N/O)nc2ccccc21 | 10.9
CCONC(=O)Nc1ccccc1 | 24.8
CC(O)CNc1ncnc2cc(-c3ccc(F)cc3)sc12 (stereo not shown) | -13.8
Cc1cnc(C(=O)OCC(=O)Nc2ncc(Cl)cc2Cl)cn1 | 6.91
Cl.Oc1cccc(Nc2ncnc3c2oc2ccccc23)c1 | 13.2
CCOC(=O)Cc1c(C)nc2cc(-c3ccc(C)cc3)[nH]n2c1=O | 1.36
CCN1CCN(CCCNC(=O)c2cn(CCOC)c(=O)c3c2c2ccccc2n3C)CC1 | 0.801
CCOC(=O)c1sc(N2C(=O)C(O)=C(C(=O)c3ccc(C)o3)C2c2ccc(OC)c(OC)c2)nc1C (stereo not shown) | 8.86
CCOc1ccccc1N(CC(=O)Nc1ccccc1C(=O)N1CCCC1)S(C)(=O)=O | 20.8
O=C(Cn1cccc1C(=O)c1ccccc1)NCc1ccccc1Cl | 15.5
c1ccc(-c2nc3ccccc3nc2N2CCOCC2)cc1 | -54.7
CCOC(=O)c1ccc2nc(C)c3c(c2c1)OC(C)C3 (stereo not shown) | -49.2
Cc1ccccc1NC(=O)C(NC1CCCCC1)C(C)C (stereo not shown) | 7.39
Cc1noc(C)c1COc1ccccc1C(=O)NCCOc1ccccc1F | -3.18
NC(=O)CSc1nnc(NC(=O)c2cccc(S(=O)(=O)N3CCCCC3)c2)s1 | 25.3
Cc1ccccc1CC1(CO)CCCN(Cc2ccccc2Cl)C1 (stereo not shown) | -25.6
Cc1ccc(-n2nc(C)c3c(C(=O)OCC(=O)N(C)C4CCS(=O)(=O)C4)cc(-c4ccccc4)nc32)cc1 (stereo not shown) | 12.9
CCCn1c(C(C)Nc2nc(-c3ccc(Cl)c([N+](=O)[O-])c3)cs2)nc2ccccc21 (stereo not shown) | 8.28
COc1ccc(NC(=O)CSC2=C(C#N)C(c3ccco3)C3=C(CCCC3=O)N2)c(OC)c1 (stereo not shown) | -33.2
CC(C)NC(=O)c1nc2c(nnn2Cc2cccc(Cl)c2)c(=O)[nH]1 | 15
Cc1cccc(-n2c(O)c(C=NC3CCS(=O)(=O)C3)c3ccccc3c2=O)c1 (stereo not shown) | -9.19
O=C(NCc1ccccc1Br)C1CCCO1 (stereo not shown) | 15.1
CN=C1SC(CC(=O)Nc2ccc(C(C)=O)cc2)C(=O)N1C (stereo not shown) | -13.1
